Test results reported in PubChem BioAssay AID886 (National Center for Advancing Translational Sciences (NCATS), 2007).
Out of some 73,000 compounds screened, about 2,500 (3.4%) were called active. Inconclusive results, whose numbers are uncertain, are shown with a selection of clear calls. Calls follow the shape of the dose curve; as a rule, active = well fitted inhibition curve with a large enough effect; inconclusive = small, poorly fitted or top-dose-only effect; inactive = no such curve, though single readings can be large or run the other way. Potencies beside an inconclusive call are fits to weak or partial responses and may not hold up.
% is scaled to controls: 0 for no effect and ±100 for the full control effect; potency is read from the fitted curve at half-maximal effect; tags tell the direction and shape of the fitted curve.
Also: nearly all actives have a fitted effect of over 60% in size.

These molecules were tested against 3-hydroxyacyl-CoA dehydrogenase type-2 (Homo sapiens) (UniProt Q99714) (assay: qHTS Assay for Inhibitors of HADH2 (Hydroxyacyl-Coenzyme A Dehydrogenase, Type II)). Details: recombinant HADH2, NADH fluorescence, beta-hydroxybutyryl-CoA; activity change, negative = inhibition: at 57.1 µM (top of the series).
Sequence of UniProt Q99714 (Q99714 whole entry, looked up): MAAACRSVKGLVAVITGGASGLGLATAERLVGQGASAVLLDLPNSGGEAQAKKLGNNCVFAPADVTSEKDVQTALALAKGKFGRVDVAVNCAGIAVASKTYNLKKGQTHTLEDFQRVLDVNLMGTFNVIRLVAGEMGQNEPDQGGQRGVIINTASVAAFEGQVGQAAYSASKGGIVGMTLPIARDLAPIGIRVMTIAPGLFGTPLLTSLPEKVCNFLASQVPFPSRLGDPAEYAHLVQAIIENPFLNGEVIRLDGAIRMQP
Sequence of UniProt Q99714 (Q99714 whole entry, looked up): as above
Summary of the method: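 20 nM HADH2 + cpd, 15 min RT; add 1 mM NAD+/90 uM beta-hydroxybutyryl-CoA; kinetic fluorescence 360/450 nm, 4 min. Tris-HCl pH 9.0, 0.01% Tween-20.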
For `CCCc1cc(C(=O)Cc2ccc(C(=O)OCC)o2)c(O)cc1O`, the Potency was inconclusive: 39.8 µM [inhibitor, single point]. In the case of `CN1C(=O)N2CN(C3CCCCC3)CN3C(=O)N(C)C1C23` (stereo not drawn), the activity change, negative = inhibition is reported as inactive: 2.28% [at 11.4 µM]. With `Cc1ccc(-c2nc(=S)c3c(n2Cc2ccco2)CC(C)(C)OC3)cc1` the Potency was inconclusive: 25.1 µM [inhibitor, partial curve]. For `COc1cccc2c1NC(C(=O)O)C1CC=CC21` (stereo not drawn), the Potency was active: 3.16 µM. `O=C1C(Cl)=C(Sc2nnc3c4ccccc4c4ccccc4c3n2)C(=O)c2ccccc21` was tested, and the Potency was active: 3.16 µM. For `Nc1ncnc2c1ncn2[C@@H]1CCCO1`, the Potency was inconclusive: 0.004 µM [inhibitor, full curve]. With `Cn1c(=O)[nH]c(=O)c2c1nc(Br)n2CCOc1ccccc1` the “activity change, negative = inhibition” value was inactive: 7.27%. With `CCOC(=O)N1CCN(C(=O)CCSCCc2ccncc2)CC1` the “activity change, negative = inhibition” value was inactive: 5.85%. In the case of `CN1CC=C2C(C#N)=C(N)C(C#N)(C#N)C(CCc3ccccc3)C2C1` (stereo not drawn), the Potency is reported as inconclusive: 31.6 µM [inhibitor, single point]. With `NC(=O)SCC(=O)Nc1ccc(Cl)c(Cl)c1` the Potency was inconclusive: 5.01 µM [inhibitor, partial curve]. In the case of `COCCNc1nc(-c2ccccc2OC)nc2ccccc12`, the Potency is reported as inconclusive: 25.1 µM [inhibitor, single point]. With `N#Cc1cccc(-c2nccc(-n3ccnc3)n2)c1` the Potency was active: 7.94 µM. For `N#Cc1c2c(c(=S)n(-c3ccccc3)c1N)CCCC2`, the Potency was inconclusive: 0.501 µM [inhibitor, partial curve]. With `Cc1c(C(=O)Nc2ccc(-n3cnnn3)cc2)oc2ccccc12` the Potency was inconclusive: 39.8 µM [inhibitor, single point]. `COc1ccc(N2Cc3cccc(C(=O)NC(C)CCc4ccco4)c3C2=O)cc1` (stereo not drawn) was tested, and the Potency was active: 20 µM. For `CCc1cc(=O)oc2cc(OCC(=O)N(CC)CC)c(Cl)cc12`, the Potency was inconclusive: 39.8 µM [inhibitor, single point]. `COCCn1c(=O)c(-c2ccccc2)nc2cnc(N3CCN(C)CC3)nc21` was tested, and the “activity change, negative = inhibition” value was inactive: 88.3%. For `Cc1cc(=O)oc2c(C)c(OCC(=O)N(C)C)ccc12`, the Potency was active: 31.6 µM. `CCOc1ccc(-c2nn3c(-c4ccccc4)nnc3s2)cc1` was tested, and the Potency was inconclusive: 39.8 µM [inhibitor, single point]. With `CN(C)c1ccc(C(=C2C=CC(=[N+](C)C)C=C2)c2ccccc2)cc1` the Potency was active: 1.58 µM. With `Cc1oc(C)c2c(=O)ccc3c(c12)OC(N)=C(C#N)C3c1ccc(F)cc1` (stereo not drawn) the Potency was inconclusive: 25.1 µM [inhibitor, single point]. For `COc1ccc(-c2nnc(SCC(=O)c3cccs3)o2)cc1`, the Potency was inconclusive: 12.6 µM [inhibitor, partial curve]. With `COc1nc2c(C)cccc2cc1-c1noc(-c2ccncc2)n1` the “activity change, negative = inhibition” value was inactive: 6.14%. For `O=C(NCC1CCCO1)C1CCCN(S(=O)(=O)c2cccc3nsnc23)C1` (stereo not drawn), the Potency was inconclusive: 6.31 µM [inhibitor, partial curve]. For `Cc1noc(C)c1C(=O)OC(C(=O)NC1CCCC1)c1ccc(F)cc1` (stereo not drawn), the “activity change, negative = inhibition” value was inactive: -8.27%. In the case of `CCc1nnc(SCc2cn3c(C)cc(C)nc3n2)n1N`, the Potency is reported as active: 25.1 µM. With `Clc1ccccc1-c1nc(NCc2cccs2)c2ccccc2n1` the “activity change, negative = inhibition” value was inactive: -12.7%. In the case of `O=C(NCc1ccco1)c1cc2c(s1)CSC2`, the Potency is reported as inconclusive: 25.1 µM [inhibitor, single point]. For `CCC(=O)Nc1ccc(NC(=O)Cc2ccccc2)cn1`, the Potency was inconclusive: 39.8 µM [inhibitor, single point]. `COc1cccc2c(=O)n(CC(=O)NC3CCCCC3)ccc12` was tested, and the Potency was inconclusive: 39.8 µM [inhibitor, single point]. `O=C(NC1CC2CCCC(C1)N2C(=O)NCc1ccccc1)C1CC1` (stereo not drawn) was tested, and the “activity change, negative = inhibition” value was inactive: 3.36%. `Cc1ccc(NC(=O)c2cnc3scc(C)n3c2=O)c(C)c1` was tested, and the “activity change, negative = inhibition” value was inactive: -5.1%. For `Cc1ncc(CO)c(CN)c1O`, the activity change, negative = inhibition was inactive: -7.3% [at 11.4 µM]. With `CN(Cc1ccco1)c1ncncc1-c1ccc2c(c1)OCO2` the Potency was active: 31.6 µM. `CC1CC(C)CN(C(=O)CSCC(=O)Nc2nc(-c3cccs3)cs2)C1` (stereo not drawn) was tested, and the Potency was inconclusive: 15.8 µM [inhibitor, partial curve]. With `N#CCCn1c(=O)c(-c2cc(F)cc(F)c2)nc2cnc(Oc3ccccc3)nc21` the Potency was inconclusive: 20 µM [inhibitor, single point]. For `Cc1ccc(Cn2c(=S)[nH]c3ccc(N4CCOCC4)cc3c2=O)o1`, the Potency was inconclusive: 10 µM [inhibitor, partial curve]. With `COc1cccc(Cn2c(=O)c(-c3cccc(Cl)c3)nc3cncnc32)c1` the “activity change, negative = inhibition” value was inactive: 0.743%. With `O=C(CCC1N=C2c3ccccc3N=C(SCc3ccc(F)cc3)N2C1=O)NCc1ccco1` (stereo not drawn) the Potency was inconclusive: 25.1 µM [inhibitor, single point]. In the case of `Cc1ccc2nc3c(cc(C#N)c(=O)n3-c3nccs3)c(=O)n2c1`, the Potency is reported as inconclusive: 0.501 µM [inhibitor, partial curve]. For `Cc1cc(C)n2nc(C(=O)Nc3ccc4c(c3)OCO4)nc2n1`, the Potency was inconclusive: 25.1 µM [inhibitor, partial curve]. In the case of `O=S(=O)(c1cccc(-c2cn3cccnc3n2)c1)N1CCCCCC1`, the Potency is reported as inconclusive: 31.6 µM [inhibitor, single point]. For `CCn1cc(-c2cc(C(F)(F)F)n3nc(C(=O)O)cc3n2)c(C)n1`, the “activity change, negative = inhibition” value was inactive: -10.1%. With `CC(C)(C)OC(=O)N[C@@H](Cc1ccccc1)c1nnc(S(=O)(=O)Cc2cccc(F)c2)o1` the Potency was active: 3.16 µM. In the case of `c1ccc(Cc2nnc3sc(C4COc5ccccc5O4)nn23)cc1` (stereo not drawn), the Potency is reported as inconclusive: 20 µM [inhibitor, partial curve, poor fit]. `CN1CCN(c2ccc(NC(=O)COc3ccc(Cl)cc3Cl)cc2)CC1` was tested, and the Potency was inconclusive: 0.0251 µM [inhibitor, full curve, poor fit]. In the case of `COC(=O)c1ccc(OCC(=O)Nc2nn(-c3ccccc3)nc2C(N)=O)cc1`, the Potency is reported as inconclusive: 25.1 µM [inhibitor, single point]. For `COc1ccccc1C1=NOC(Cn2c(=O)c3c(ncn3C)n(C)c2=O)C1` (stereo not drawn), the “activity change, negative = inhibition” value was inactive: 2.82%. With `O=C(COC(=O)C1c2ccccc2Oc2ccccc21)NC1CCS(=O)(=O)C1` (stereo not drawn) the “activity change, negative = inhibition” value was inactive: -2.27%. In the case of `CCOC(=O)c1cc(C)n(CCc2ccccc2)c1C`, the “activity change, negative = inhibition” value is reported as inactive: -6.16%. With `CCOC(=O)C1C2C=CC3(CN(C4CCCC4)C(=O)C13)O2` (stereo not drawn) the “activity change, negative = inhibition” value was inactive: 9.22%. In the case of `CC(=O)c1nn(-c2cccc(Cl)c2)cc1C(=O)c1ccco1`, the “activity change, negative = inhibition” value is reported as inactive: 8.21%. `COc1ccccc1NC(=O)c1c(NC(=O)c2ccco2)sc2c1CCC2` was tested, and the Potency was inconclusive: 39.8 µM [inhibitor, single point]. In the case of `Cc1ccc(OCc2nc(C#N)c(N3CCCC3)o2)cc1`, the Potency is reported as inconclusive: 39.8 µM [inhibitor, single point]. `COc1ccc(-c2nc(C#N)c(NCc3ccc(F)cc3)o2)cc1OC` was tested, and the Potency was inconclusive: 31.6 µM [inhibitor, single point]. `N#CC1=C2SCC(O)(c3ccccc3)N2C(=O)CC1c1cccs1` (stereo not drawn) was tested, and the “activity change, negative = inhibition” value was inactive: -9.09%. For `Cc1nnc(SCc2ccccc2C#N)n1-c1ccccc1`, the Potency was active: 25.1 µM. In the case of `COc1ccc(OC)c(-c2cc(C(=O)Nc3c(C)nn(Cc4ccc(Cl)cc4)c3C)no2)c1`, the Potency is reported as inconclusive: 31.6 µM [inhibitor, single point]. `O=C(Nc1nc(-c2ccc(Cl)s2)cs1)c1cccs1` was tested, and the Potency was active: 12.6 µM. For `O=C(Cc1ccc(-n2c(=O)[nH]c3ccccc3c2=O)cc1)N1CCN(c2ccccc2)CC1`, the Potency was inconclusive: 39.8 µM [inhibitor, single point]. With `Cc1nc(NC(=O)c2ccccc2)sc1-c1csc(NCc2ccco2)n1` the Potency was active: 15.8 µM. With `CCN(CC)CCCNc1cc2n(c(=O)n1)CCc1cc(OC)c(OC)cc1-2` the Potency was inconclusive: 31.6 µM [inhibitor, single point]. With `O=C(NC1CCCCC1)c1sc(=S)n2c1[nH]c(=O)c1ccccc12` the Potency was active: 3.98 µM. With `Cc1ccc(C)c(N2CCN(C(=O)c3cc4ccccc4oc3=O)CC2)c1` the “activity change, negative = inhibition” value was inactive: -8.56%. In the case of `COc1ccccc1N1C(=O)c2ccccc2NC1c1ccncc1` (stereo not drawn), the Potency is reported as inconclusive: 31.6 µM [inhibitor, single point]. In the case of `Cc1ccc(CNC(=O)c2cc3c(=O)n4cccc(C)c4nc3n(CC3CCCO3)c2=N)cc1` (stereo not drawn), the “activity change, negative = inhibition” value is reported as inactive: 29.8%. In the case of `CCN(CC)c1ccc(/C=N/NC(=O)c2ccc(O)cc2)cc1`, the Potency is reported as active: 25.1 µM. For `Cc1ccccc1-n1c(SC/C(O)=C(\C#N)c2nc3ccccc3[nH]2)nnc1-c1ccncc1`, the “activity change, negative = inhibition” value was inactive: -12.9%. In the case of `CC1(C)Cc2c(c(-c3ccco3)nc3n[nH]c(N)c23)CO1`, the “activity change, negative = inhibition” value is reported as inactive: -6.49%. With `CC(C)N(Cc1ccccc1)C(=O)c1cnc2n(c1=O)CCS2` the Potency was inconclusive: 25.1 µM [inhibitor, single point]. For `CCOC(=O)c1c(N)sn(-c2ccccc2C)c1=S`, the Potency was active: 2 µM. For `Cc1ccc(-c2nnc3ccc(SCC(=O)Nc4cc(C)on4)nn23)cc1`, the Potency was inconclusive: 39.8 µM [inhibitor, single point]. `O=C(CC1OC(=O)c2ccccc21)c1ccco1` (stereo not drawn) was tested, and the Potency was inconclusive: 39.8 µM [inhibitor, single point]. In the case of `CCOC(=O)N1CCC(NC(=O)c2cnn3cccnc23)CC1`, the Potency is reported as inconclusive: 15.8 µM [inhibitor, partial curve]. With `Brc1cc2c(cc1Cn1c(-c3cncs3)nc3ccccc31)OCO2` the “activity change, negative = inhibition” value was inactive: 10.4%. In the case of `COC(=O)c1[nH]c2ccc(Cl)cc2c1NC(=O)CN1CCC(C(N)=O)CC1`, the Potency is reported as inconclusive: 25.1 µM [inhibitor, partial curve]. With `O=c1c2ccccc2nc2n1CCN2Cc1ccc(Cl)cc1` the Potency was active: 31.6 µM. In the case of `Cc1ccc2cc(CN(CC3CCCO3)C(=O)C(C)C)c(=O)[nH]c2c1` (stereo not drawn), the Potency is reported as inconclusive: 0.199 µM [inhibitor, full curve].
